Measurements: PubChem BioAssay AID588855 (National Center for Advancing Translational Sciences (NCATS), 2011)
The campaign covered roughly 410,000 compounds. About 5,000 (1.2%) were called active. The shares of active, inactive and inconclusive entries below differ from those in the screen. The call rests on the fitted dose curve; in most records, active means well fitted inhibition curve with a large enough effect; inconclusive means small, poorly fitted or top-dose-only effect; inactive means no such curve, though single readings can be large or run the other way. Potencies beside an inconclusive call are fits to weak or partial responses and may not hold up.

Assay: qHTS for Inhibitors of TGF-b; further: nearly all actives have a fitted effect of over 65% in size
Settings: HepG2 CAGA-GFP TGF-b/SMAD3 reporter, GFP fluorescence, 18 h, TGF-beta stimulated, 500 pg/mL final; series mostly up to 46.1 µM; activity, negative = inhibition: at the top concentration
Method in brief: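 Inhibition of TGF-beta-driven CAGA-GFP reporter expression in HEPG2 cells is measured by cellular GFP fluorescence after 18 h stimulation with 500 pg/mL recombinant TGF-beta in 1% FBS medium at 37 degrees C.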
On the % scale 0 is the no-effect control and ±100 the full control effect; potency means the concentration at half of the fitted maximal effect; tags describe the fitted curve by direction and shape.

Compound | Potency | activity, negative = inhibition
Cc1ccccc1OCC(O)Cn1c2ccccc2c2ccccc21 (configuration not stated) | inconclusive: 35.5 µM [inhibitor, single point] | –
Cn1cc(CN2CCC(C(=O)NC(c3ccc(F)cc3)c3ccc4ccccc4n3)CC2)c2ccccc21 (configuration not stated) | inconclusive: 35.5 µM [inhibitor, single point] | –
Cc1ccc(Nc2nc(NCc3ccco3)c3ccccc3n2)cc1 | active: 11.2 µM | –
CN1CCN(C(=S)c2cn(Cc3ccc(Br)cc3)c3ccccc23)CC1 | inconclusive: 15.8 µM [inhibitor, single point] | –
O=C(c1ccco1)c1nnn(Cc2ccccc2)c1-c1ccccc1 | – | inactive: -28.3%
Cc1ccccc1NC(=S)NC(NC(=O)c1ccccc1C)C(Cl)(Cl)Cl (configuration not stated) | – | inactive: -25.8%
CC1(C)CC(=O)C2=C(C1)NC(Nc1nc3ccccc3o1)=NC2c1ccccc1 (configuration not stated) | – | inactive: 7.64%
O=[N+]([O-])c1cc(S(=O)(=O)Nc2ccccc2)ccc1N1CCN(c2ccccc2)CC1 | inconclusive: 25.1 µM [inhibitor, single point] | –
CC1(C(=O)Nc2ccc(Cl)c(C(F)(F)F)c2)Cc2c(-c3ccc4c(c3)OCO4)ccnc2O1 (configuration not stated) | inconclusive: 35.5 µM [inhibitor, single point] | –
COC(=O)c1ccc2c(=O)n(CCCCCC(=O)O)c(=O)[nH]c2c1 | – | inactive: 0.92%
CCOc1ccccc1NC(=O)c1cccc(S(=O)(=O)N(Cc2ccccc2)c2ccccc2OC)c1 | – | inactive: -15.8%
Cc1cc(C)n(-c2nnc(Nc3ccc(C)c(C)c3)c3ccccc23)n1 | – | inactive: -13.2%
CCn1c(SCC(=O)c2ccc(O)c(O)c2)nnc1-c1ccccc1OC | inconclusive: 35.5 µM [inhibitor, single point] | –
COc1ccc(-c2c(C#N)c(SCC(=O)Nc3ccccc3C)nc(C)c2C(=O)Nc2ccc(Cl)cc2)cc1 | inconclusive: 3.16 µM [inhibitor, single point] | –
Cc1nc2nc(C)n(CCN3CCOCC3)c(=O)c2c(-c2cccc([N+](=O)[O-])c2)c1C(=O)CCCCCCCCCCN1CCC(c2ccccc2)(c2ccccc2)CC1 | active: 7.08 µM | –
CCc1ccc(-c2c(C)sc(NC(C)=O)c2C(N)=O)cc1 | – | inactive: -18%
CCOc1ccc(/C=C/C(=O)c2ccccc2)cc1OC | inconclusive: 35.5 µM [inhibitor, single point] | –
Cc1cc(NC(=O)CCN2CCN(C/C=C/c3ccccc3)CC2)ccc1Br | inconclusive: 35.5 µM [inhibitor, single point] | –
COc1ccc(C(C(=O)NC2CCCCC2)N(Cc2ccco2)C(=O)CNC(=O)c2ccco2)cc1 (configuration not stated) | inconclusive: 35.5 µM [inhibitor, single point] | –
CCOC(=O)c1cc(S(=O)(=O)Nc2cc(OC)ccc2OC)[nH]n1 | – | inactive: -10.7%
COC(=O)c1ccc2c(c1)NC(=O)C(N1CCOCC1)S2 (configuration not stated) | – | inactive: 5.74%

Compound | Potency | activity, negative = inhibition
O=C(CSc1cn(CC(=O)N2CCCC2)c2ccccc12)Nc1ccc(Cl)cc1 | inconclusive: 12.6 µM [inhibitor, partial curve, poor fit] | –
COC(=O)c1ccc(COC(=O)C(CCS(C)(=O)=O)N2C(=O)c3ccccc3C2=O)cc1 (configuration not stated) | inconclusive: 6.31 µM [inhibitor, single point] | –
CC(C)NC(=S)N/N=C1\CCCCc2ccccc21 | inconclusive: 15.8 µM [inhibitor, partial curve, poor fit] | –
COc1cc2c(-c3cccc(Cl)c3)nc3c(c(C)nn3-c3ccccc3)c2cc1OC | – | inactive: -19.1%
CCOC(=O)COc1ccc(C2C(C(=O)OC)=C(C)NC3=C2C(=O)c2ccccc23)cc1Cl (configuration not stated) | inconclusive: 17.8 µM [inhibitor, single point] | –
O=C(Nc1ccc(Cl)cc1)Nc1ccccc1NS(=O)(=O)c1cccs1 | inconclusive: 22.4 µM [inhibitor, single point] | –
CCN(CC)C(=O)c1cccc(-c2csc(C(O)c3ccc(F)c(OC)c3)n2)c1 (configuration not stated) | inconclusive: 10 µM [inhibitor, partial curve, poor fit] | –
CC(C)(C)c1ccc(-c2nc(C#N)c(NCCCn3ccnc3)o2)cc1 | inconclusive: 35.5 µM [inhibitor, single point] | –
CCCCOc1cccc(C2C(C(=O)c3cccs3)=C(O)C(=O)N2Cc2cccnc2)c1 (configuration not stated) | inconclusive: 28.2 µM [inhibitor, single point] | –
COc1ccc(CN=C2NC(=O)CC(C(=O)Nc3ccc([N+](=O)[O-])cc3C)S2)cc1 (configuration not stated) | inconclusive: 10 µM [inhibitor, partial curve, poor fit] | –
O=C(Cc1ccc(Cl)cc1)N/N=C/c1c(Cl)cccc1Cl | – | inactive: -21.4%
Cc1ccc(OC(C)C(=O)N2CCc3ccccc32)c([N+](=O)[O-])n1 (configuration not stated) | – | inactive: 6.48%
CCC(CNc1cc(OC)cc2cccnc12)NC1CCCCC1 (configuration not stated) | inconclusive: 35.5 µM [inhibitor, single point] | –
CCOC(=O)[C@H]1[C@H]2COc3ccc(Br)cc3[C@@H]2N2C(=O)CN(Cc3ccc(F)cc3)C(=O)[C@@]12C | inconclusive: 14.1 µM [inhibitor, single point] | –
CC1(C)Cc2c(sc(NC(=O)c3ccc(C(=O)c4ccccc4)cc3)c2C(N)=O)C(C)(C)N1 | inconclusive: 35.5 µM [inhibitor, single point] | –
COc1cc2nc(NCCCN3CCN(C)CC3)n3nc(-c4ccccc4)nc3c2cc1OC | inconclusive: 35.5 µM [inhibitor, single point] | –
Cc1cccc(NC(=O)Cn2cc(C(=O)C3CCCCC3)c3ccccc32)c1 | inconclusive: 12.6 µM [inhibitor, single point] | –
O=C(NC1CCCCC1)C1CCCN(S(=O)(=O)c2ccc(F)cc2)C1 (configuration not stated) | – | inactive: -14.3%
Cc1oc(-c2ccccc2F)nc1CS(=O)(=O)CC(=O)NC1CCCC(C)C1C (configuration not stated) | inconclusive: 35.5 µM [inhibitor, single point] | –
CN1/C(=C/C(=O)C2CCC2)Sc2ccccc21 | inconclusive: 5.62 µM [inhibitor, full curve, poor fit] | –
COCCn1c(SCC(=O)c2c[nH]c3ccccc23)nc2cc(C(=O)NC(C)C)ccc2c1=O | inconclusive: 4.47 µM [inhibitor, single point] | –
